The text below walks through data of paper PMC4336329 (PLoS ONE, 2015).

About 14,000 (4.5%) of roughly 310,000 compounds showed an effect of 50% or more. The effect is printed as a negative number. Some of the results follow.
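Further: peak tail current of the secondary pulse compared with the same well before compound.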

human ether-à-go-go-related gene (hERG) potassium channel, sequence (Q12809 whole entry, looked up): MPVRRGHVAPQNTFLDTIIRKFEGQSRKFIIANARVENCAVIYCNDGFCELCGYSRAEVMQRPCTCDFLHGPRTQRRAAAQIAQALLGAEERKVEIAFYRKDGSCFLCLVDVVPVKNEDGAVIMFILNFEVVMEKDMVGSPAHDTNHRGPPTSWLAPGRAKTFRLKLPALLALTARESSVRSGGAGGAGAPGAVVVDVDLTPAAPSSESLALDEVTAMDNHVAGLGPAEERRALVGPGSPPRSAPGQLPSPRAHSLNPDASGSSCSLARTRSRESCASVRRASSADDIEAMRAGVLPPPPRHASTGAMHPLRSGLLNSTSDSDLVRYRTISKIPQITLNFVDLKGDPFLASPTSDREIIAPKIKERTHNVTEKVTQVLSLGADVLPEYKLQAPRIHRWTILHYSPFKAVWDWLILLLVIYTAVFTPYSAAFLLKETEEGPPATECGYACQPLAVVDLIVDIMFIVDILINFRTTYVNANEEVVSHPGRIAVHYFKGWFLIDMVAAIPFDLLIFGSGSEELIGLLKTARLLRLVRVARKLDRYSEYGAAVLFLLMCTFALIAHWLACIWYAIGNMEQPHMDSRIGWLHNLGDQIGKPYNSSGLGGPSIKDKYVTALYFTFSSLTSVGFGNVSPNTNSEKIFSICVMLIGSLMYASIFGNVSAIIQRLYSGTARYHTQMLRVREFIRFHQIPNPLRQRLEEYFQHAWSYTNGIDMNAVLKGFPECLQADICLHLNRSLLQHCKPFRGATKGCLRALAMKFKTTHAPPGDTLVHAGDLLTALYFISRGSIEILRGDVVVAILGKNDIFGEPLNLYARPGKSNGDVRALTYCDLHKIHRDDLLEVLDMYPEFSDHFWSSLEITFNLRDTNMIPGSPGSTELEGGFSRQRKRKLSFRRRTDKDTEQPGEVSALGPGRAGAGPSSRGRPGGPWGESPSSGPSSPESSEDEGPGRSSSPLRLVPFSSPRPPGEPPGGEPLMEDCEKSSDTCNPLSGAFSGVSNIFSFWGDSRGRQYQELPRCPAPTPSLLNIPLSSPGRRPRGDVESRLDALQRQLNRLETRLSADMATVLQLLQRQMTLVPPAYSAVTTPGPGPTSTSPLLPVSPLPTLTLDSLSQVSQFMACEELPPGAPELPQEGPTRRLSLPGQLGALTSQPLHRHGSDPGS

This assay has as its target human ether-à-go-go-related gene (hERG) potassium channel (human, UniProt Q12809). The assay is described as follows: primary screen, population patch clamp on CHO cells stably expressing hERG.
`COc1cccc(CNC(=O)CSc2nc3ccc(C)cc3[nH]2)c1`: the “hERG current change (%, negative = inhibition) at 10uM” value is listed as 6.22%.

In the case of `Cc1ccc(OCCC(=O)OCC(=O)NC(=O)NC2CCCCC2)cc1`, the “hERG current change (%, negative = inhibition) at 10uM” value amounted to 14.9%.

Regarding `CCOc1ccccc1N1CCN(S(=O)(=O)c2ccc(F)c(F)c2)CC1`, the “hERG current change (%, negative = inhibition) at 10uM” value is reported as -20.8%.

In the case of `Cc1ccc(C(=O)N2CCN(c3cc4c(cc3[N+](=O)[O-])n(C)c(=O)n4C)CC2)cc1`, the “hERG current change (%, negative = inhibition) at 10uM” value is reported as -66.6%.

With `COc1ccc(/C=C2\N=C3CCCCCN3C2=O)cc1OC`, the “hERG current change (%, negative = inhibition) at 10uM” value worked out at 11%.

For `O=C1c2cccnc2C(=O)N1Cc1ccc(F)cc1S(=O)(=O)NCc1ccco1`, the “hERG current change (%, negative = inhibition) at 10uM” value is -27.1%.

On to `Cc1ccc(C(=O)c2cc([N+](=O)[O-])ccc2N2CCCCC2)c(C)c1`, for which the “hERG current change (%, negative = inhibition) at 10uM” value is reported as 5.96%.

For `CCC(C)NC(=S)Nc1ccc2nc(N3CCOCC3)cc(C)c2c1` (stereo not shown), the “hERG current change (%, negative = inhibition) at 10uM” value amounted to 5.86%.

With `O=[N+]([O-])c1ccc(S(=O)(=O)Nc2ccc(-c3ccc(N4CCCC4)nn3)cc2)cc1`, the “hERG current change (%, negative = inhibition) at 10uM” value is on record as -8.67%.

Regarding `O=C(Cn1cnc2ccccc2c1=O)Nc1ccc(S(=O)(=O)N2CCOCC2)cc1`, the “hERG current change (%, negative = inhibition) at 10uM” value was 16.2%.

As to `COc1ccccc1NC(=O)CS(=O)(=O)c1cccc2nsnc12`, the “hERG current change (%, negative = inhibition) at 10uM” value is recorded as 0.279%.

Consider `O=C(Cn1cc(C(=O)C2CC2)c2ccccc21)Nc1ccc(F)cc1`, for which the “hERG current change (%, negative = inhibition) at 10uM” value is given as -20.5%.

For `CCCCn1c(-c2ccccc2)nc2c(=O)n(C)c(=O)[nH]c21`, the “hERG current change (%, negative = inhibition) at 10uM” value came out at 18.3%.

For `Nc1cc(N)nc(SCC(=O)NCc2ccco2)n1`, the “hERG current change (%, negative = inhibition) at 10uM” value is recorded as 9.13%.

Turning to `CC(=O)Nc1cc(NC(C)=O)cc(C(=O)OCC(=O)c2ccc3c(c2)OCO3)c1`, the “hERG current change (%, negative = inhibition) at 10uM” value amounted to 7.16%.

As for `CS(=O)(=O)N(CC(=O)NN=C1CCCCCC1)c1ccc(Oc2ccccc2)cc1`, the “hERG current change (%, negative = inhibition) at 10uM” value is 13.7%.

In the case of `CCOC(=O)c1cc(-c2ccc(N3CCOCC3)cc2)nn1-c1ccccc1`, the “hERG current change (%, negative = inhibition) at 10uM” value is reported as -48.9%.

On to `O=C(Nc1ccc(-n2cccc2)cc1)C1CC1`, for which the “hERG current change (%, negative = inhibition) at 10uM” value was determined as 11.8%.

On to `CCOC(=O)N1CCC(NS(=O)(=O)c2ccc(NC(C)=O)c(Cl)c2)CC1`, for which the “hERG current change (%, negative = inhibition) at 10uM” value is 20.2%.

On to `Cc1nn(Cc2ccc(F)cc2)c(C)c1NC(=O)CCCn1nc([N+](=O)[O-])cc1C`, for which the “hERG current change (%, negative = inhibition) at 10uM” value is recorded as -1.82%.

For `N#Cc1ccc(OCC(O)CN2CCN(CC(O)COc3ccc(C#N)cc3)CC2)cc1` (stereo not shown), the “hERG current change (%, negative = inhibition) at 10uM” value is recorded as -86.1%.

On to `CCCS(=O)(=O)N1CCN=C1SCc1cccc2ccccc12`, for which the “hERG current change (%, negative = inhibition) at 10uM” value turned out to be 0.766%.

Turning to `O=C(CC1SC(N2CCCCC2)=NC1=O)Nc1cccc(C(=O)O)c1` (stereo not shown), the “hERG current change (%, negative = inhibition) at 10uM” value worked out at 8.24%.

`CCCCOc1ccc(C(=O)N/C(=C\c2cccc([N+](=O)[O-])c2)C(=O)OC(C)C)cc1`: the “hERG current change (%, negative = inhibition) at 10uM” value is on record as -9.93%.

As to `O=C(c1ccc(S(=O)(=O)N2CCOCC2)cc1)N1CCCc2ccccc21`, the “hERG current change (%, negative = inhibition) at 10uM” value is given as -7.14%.

Take `O=C(CNC(=O)c1cccs1)OCC(=O)c1ccc(Br)cc1`: the “hERG current change (%, negative = inhibition) at 10uM” value came to 5.62%.

For `Cc1ccc(-n2nc3c(c2NC(=O)c2ccco2)CS(=O)C3)cc1` (stereo not shown), the “hERG current change (%, negative = inhibition) at 10uM” value is -8.69%.

For the molecule `N#Cc1c(Cl)nsc1NCCN1CCOCC1`, the “hERG current change (%, negative = inhibition) at 10uM” value was 15.4%.

As for `Cc1cc(C)c(S(=O)(=O)NCC(CCC(=O)O)C(F)(F)F)c(C)c1` (stereo not shown), the “hERG current change (%, negative = inhibition) at 10uM” value is on record as 3.41%.

Regarding `C(=N\c1nccs1)/c1cccnc1`, the “hERG current change (%, negative = inhibition) at 10uM” value amounted to 0.336%.

`CC1(C)NC(=O)N(CC(O)CN2C(=O)NC(C)(C)C2=O)C1=O`: the “hERG current change (%, negative = inhibition) at 10uM” value worked out at 17.2%.

With `COc1ccc(-n2cnc3c(sc4nccc(N(C)C)c43)c2=O)cc1`, the “hERG current change (%, negative = inhibition) at 10uM” value was -13.8%.

For the molecule `O=C(NNC(=O)c1ccncc1)c1ccccc1`, the “hERG current change (%, negative = inhibition) at 10uM” value came to 18.8%.

For the molecule `CN(Cc1ccccc1)S(=O)(=O)c1csc(C(N)=O)c1`, the “hERG current change (%, negative = inhibition) at 10uM” value is given as -17.8%.

With `O=C(NC1CCN(Cc2ccccc2)CC1)c1ccc2c(c1)OCCCO2`, the “hERG current change (%, negative = inhibition) at 10uM” value is on record as -37.1%.

As for `Cc1cc(C)c(NC(=O)CNC(=O)COC(=O)/C=C/c2cccs2)c(C)c1`, the “hERG current change (%, negative = inhibition) at 10uM” value was 0.852%.

Consider `CC(C)C[C@H](NC(=O)c1nc[nH]c1C(=O)NCC(=O)OC(C)(C)C)C(=O)OC(C)(C)C`, for which the “hERG current change (%, negative = inhibition) at 10uM” value is -0.984%.

Turning to `N=C1C(c2nc3ccccc3s2)=C(O)CN1Cc1ccccc1`, the “hERG current change (%, negative = inhibition) at 10uM” value is reported as -8.09%.

Consider `NC(=O)NC(=O)C(Nc1ccc(N2CCCCC2)cc1)c1ccccc1` (stereo not shown), for which the “hERG current change (%, negative = inhibition) at 10uM” value was 16.2%.

For the molecule `Cc1cccn2c(=O)c(C=O)c(N3CCN(c4ccccc4)CC3)nc12`, the “hERG current change (%, negative = inhibition) at 10uM” value is reported as -55.4%.

Take `C=CCNC(=O)C1CCN(C(=O)c2ccc(-c3ccccc3)cc2)CC1`: the “hERG current change (%, negative = inhibition) at 10uM” value is -24.8%.

Turning to `CC(C)CCN1CCN(Cc2cnc(-c3ccccc3)s2)CC1CCO` (stereo not shown), the “hERG current change (%, negative = inhibition) at 10uM” value is given as -56.6%.

As for `CN(CCC#N)S(=O)(=O)c1ccc2c(c1)c(=O)n(C)c(=O)n2C`, the “hERG current change (%, negative = inhibition) at 10uM” value is 0.68%.

For the molecule `COc1cccc(C2C(C(=O)Nc3ccccc3)=C(C)N=c3s/c(=C/c4ccc(OCC(=O)O)cc4)c(=O)n32)c1` (stereo not shown), the “hERG current change (%, negative = inhibition) at 10uM” value is -18.4%.

In the case of `CC(CN1CCC(n2nccc2NC(=O)CCCc2ccccc2)CC1)c1ccccc1` (stereo not shown), the “hERG current change (%, negative = inhibition) at 10uM” value is -51.9%.

For `CN(C)c1ccc(CNCCC(Cc2ccccc2)c2ccco2)cc1` (stereo not shown), the “hERG current change (%, negative = inhibition) at 10uM” value is given as -52.3%.

Consider `Cc1nn(S(=O)(=O)c2ccccc2)c(C)c1S(=O)(=O)N1CCOCC1`, for which the “hERG current change (%, negative = inhibition) at 10uM” value came out at 20.1%.

For `COc1ccc(NC(=O)CN(C)C(=O)Cc2ccc(S(=O)(=O)N3CCOCC3)s2)cc1`, the “hERG current change (%, negative = inhibition) at 10uM” value came to 8.92%.

Consider `CCc1ccc(N2CCN(S(=O)(=O)CC34CCC(CC3=O)C4(C)C)CC2)cc1` (stereo not shown), for which the “hERG current change (%, negative = inhibition) at 10uM” value is 16.2%.

With `COc1cccc(CN2CCNC(=O)C2CC(=O)N(C)CC2CCOCC2)c1OC` (stereo not shown), the “hERG current change (%, negative = inhibition) at 10uM” value was -0.0809%.

`Cc1ccc(-c2cc[n+](Cc3ccccc3)cc2)cc1.[Cl-]`: the “hERG current change (%, negative = inhibition) at 10uM” value is on record as -5.47%.

Consider `COc1cc(-c2nc3cnccn3c2Nc2ccc(C(C)C)cc2)ccc1O`, for which the “hERG current change (%, negative = inhibition) at 10uM” value was determined as 25%.

Consider `O=C(CN1CC=C(c2ccccc2)CC1)NC(=O)NCc1ccccc1`, for which the “hERG current change (%, negative = inhibition) at 10uM” value is 3.33%.

On to `O=S(=O)(c1ccc(Br)s1)n1cccn1`, for which the “hERG current change (%, negative = inhibition) at 10uM” value was -6.66%.

As for `COc1ccccc1CNC(=O)c1nn(-c2ccc(C)cc2)c(=O)c2c1c1ccccc1n2C`, the “hERG current change (%, negative = inhibition) at 10uM” value is given as -12.5%.
